The supplement of paper PMC12423691
Some of the results follow. Binding of human transcription factors and regulators to the viral nucleoprotein by AlphaScreen, crude cell-free proteins, amounts not normalised, one pass. Fold of the Venus control; higher = more signal. No active / inactive call. Single-pass screen; sequences are the whole Swiss-Prot entries looked up by name.

B1: BATF2, Q8N1L9 (protein)
chain: MHLCGGNGLLTQTDPKEQQRQLKKQKNRAAAQRSRQKHTDKADALHQQHESLEKDNLALRKEIQSLQAELAWWSRTLHVHERLCPMDCASCSAPGLLGCWDQAEGLLGPGPQGQHGCREQLELFQTPGSCYPAQPLSPGPQPHDSPSLLQCPLPSLSLGPAVVAEPPVQLSPSPLLFASHTGSSLQGSSSKLSALQPSLTAQTAPPQPLELEHPTRGKLGSSPDNPSSALGLARLQSREHKPALSAATWQGLVVDPSPHPLLAFPLLSSAQVHF
B2: DLX4, Q92988 (protein)
chain: MTSLPCPLPGRDASKAVFPDLAPVPSVAAAYPLGLSPTTAASPNLSYSRPYGHLLSYPYTEPANPGDSYLSCQQPAALSQPLCGPAEHPQELEADSEKPRLSPEPSERRPQAPAKKLRKPRTIYSSLQLQHLNQRFQHTQYLALPERAQLAAQLGLTQTQVKIWFQNKRSKYKKLLKQNSGGQEGDFPGRTFSVSPCSPPLPSLWDLPKAGTLPTSGYGNSFGAWYQHHSSDVLASPQMM
B3: ZNF121, P58317 (protein)
chain: MAEIHNGGELCDFMENGEIFSEHSCLNAHMGTENTGDTYDCDEYGENFPMLHNSAPAGETLSVLNQCRKAFSLPPNVHQRTWIGDKSFEYSDCEEAFVDQSHLQANRITHNGETLYEQKQCGRAFTYSTSHAVSVKMHTVEKPYECKECGKFFRYSSYLNSHMRTHTGEKPYECKECGKCFTVSSHLVEHVRIHTGEKPYQCKECGRAFAGRSGLTKHVRIHTGEKPYECNECGKAYNRFYLLTEHFKTHTEEKPFECKVCGKSFRSSSCLKNHFRIHTGIKPYKCKECGKAFTVSSSLHNHVKIHTGEKPYECKDCGKAFATSSQLIEHIRTHTGEKPYICKECGKTFRASSHLQKHVRIHTGEKPYICNECGKAYNRFYLLTKHLKTH
B4: ZNF71, Q9NQZ8 (protein)
chain: MKELDPKNDISEDKLSVVGEATGGPTRNGARGPGSEGVWEPGSWPERPRGDAGAEWEPLGIPQGNKLLGGSVPACHELKAFANQGCVLVPPRLDDPTEKGACPPVRRGKNFSSTSDLSKPPMPCEEKKTYDCSECGKAFSRSSSLIKHQRIHTGEKPFECDTCGKHFIERSSLTIHQRVHTGEKPYACGDCGKAFSQRMNLTVHQRTHTGEKPYVCDVCGKAFRKTSSLTQHERIHTGEKPYACGDCGKAFSQNMHLIVHQRTHTGEKPYVCPECGRAFSQNMHLTEHQRTHTGEKPYACKECGKAFNKSSSLTLHQRNHTGEKPYVCGECGKAFSQSSYLIQHQRFHIGVKPFECSECGKAFSKNSSLTQHQRIHTGEKPYECYICKKHFTGRSSLIVHQIVHTGEKPYVCGECGKAFSQSAYLIEHQRIHTGEKPYRCGQCGKSFIKNSSLTVHQRIHTGEKPYRCGECGKTFSRNTNLTRHLRIHT
B5: NR4A2, P43354 (protein)
chain: MPCVQAQYGSSPQGASPASQSYSYHSSGEYSSDFLTPEFVKFSMDLTNTEITATTSLPSFSTFMDNYSTGYDVKPPCLYQMPLSGQQSSIKVEDIQMHNYQQHSHLPPQSEEMMPHSGSVYYKPSSPPTPTTPGFQVQHSPMWDDPGSLHNFHQNYVATTHMIEQRKTPVSRLSLFSFKQSPPGTPVSSCQMRFDGPLHVPMNPEPAGSHHVVDGQTFAVPNPIRKPASMGFPGLQIGHASQLLDTQVPSPPSRGSPSNEGLCAVCGDNAACQHYGVRTCEGCKGFFKRTVQKNAKYVCLANKNCPVDKRRRNRCQYCRFQKCLAVGMVKEVVRTDSLKGRRGRLPSKPKSPQEPSPPSPPVSLISALVRAHVDSNPAMTSLDYSRFQANPDYQMSGDDTQHIQQFYDLLTGSMEIIRGWAEKIPGFADLPKADQDLLFESAFLELFVLRLAYRSNPVEGKLIFCNGVVLHRLQCVRGFGEWIDSIVEFSSNLQNMNIDISAFSCIAALAMVTERHGLKEPKRVEELQNKIVNCLKDHVTFNNGGLNRPNYLSKLLGKLPELRTLCTQGLQRIFYLKLEDLVPPPAIIDKLFLDTLPF
B6: KLF11, O14901 (protein)
chain: MHTPDFAGPDDARAVDIMDICESILERKRHDSERSTCSILEQTDMEAVEALVCMSSWGQRSQKGDLLRIRPLTPVSDSGDVTTTVHMDAATPELPKDFHSLSTLCITPPQSPDLVEPSTRTPVSPQVTDSKACTATDVLQSSAVVARALSGGAERGLLGLEPVPSSPCRAKGTSVIRHTGESPAACFPTIQTPDCRLSDSREGEEQLLGHFETLQDTHLTDSLLSTNLVSCQPCLHKSGGLLLTDKGQQAGWPGAVQTCSPKNYENDLPRKTTPLISVSVPAPPVLCQMIPVTGQSSMLPAFLKPPPQLSVGTVRPILAQAAPAPQPVFVGPAVPQGAVMLVLPQGALPPPAPCAANVMAAGNTKLLPLAPAPVFITSSQNCVPQVDFSRRRNYVCSFPGCRKTYFKSSHLKAHLRTHTGEKPFNCSWDGCDKKFARSDELSRHRRTHTGEKKFVCPVCDRRFMRSDHLTKHARRHMTTKKIPGWQAEVGKLNRIASAESPGSPLVSMPASA
B7: IRF5, Q13568 (protein)
chain: MNQSIPVAPTPPRRVRLKPWLVAQVNSCQYPGLQWVNGEKKLFCIPWRHATRHGPSQDGDNTIFKAWAKETGKYTEGVDEADPAKWKANLRCALNKSRDFRLIYDGPRDMPPQPYKIYEVCSNGPAPTDSQPPEDYSFGAGEEEEEEEELQRMLPSLSLTEDVKWPPTLQPPTLRPPTLQPPTLQPPVVLGPPAPDPSPLAPPPGNPAGFRELLSEVLEPGPLPASLPPAGEQLLPDLLISPHMLPLTDLEIKFQYRGRPPRALTISNPHGCRLFYSQLEATQEQVELFGPISLEQVRFPSPEDIPSDKQRFYTNQLLDVLDRGLILQLQGQDLYAIRLCQCKVFWSGPCASAHDSCPNPIQREVKTKLFSLEHFLNELILFQKGQTNTPPPFEIFFCFGEEWPDRKPREKKLITVQVVPVAARLLLEMFSGELSWSADSIRLQISNPDLKDRMVEQFKELHHIWQSQQRLQPVAQAPPGAGLGVGQGPWPMHPAGMQ
B8: POU3F1, Q03052 (protein)
chain: MATTAQYLPRGPGGGAGGTGPLMHPDAAAAAAAAAAAERLHAGAAYREVQKLMHHEWLGAGAGHPVGLAHPQWLPTGGGGGGDWAGGPHLEHGKAGGGGTGRADDGGGGGGFHARLVHQGAAHAGAAWAQGSTAHHLGPAMSPSPGASGGHQPQPLGLYAQAAYPGGGGGGLAGMLAAGGGGAGPGLHHALHEDGHEAQLEPSPPPHLGAHGHAHGHAHAGGLHAAAAHLHPGAGGGGSSVGEHSDEDAPSSDDLEQFAKQFKQRRIKLGFTQADVGLALGTLYGNVFSQTTICRFEALQLSFKNMCKLKPLLNKWLEETDSSSGSPTNLDKIAAQGRKRKKRTSIEVGVKGALESHFLKCPKPSAHEITGLADSLQLEKEVVRVWFCNRRQKEKRMTPAAGAGHPPMDDVYAPGELGPGGGGASPPSAPPPPPPAALHHHHHHTLPGSVQ
B9: FZD6, O60353 (protein)
chain: MEMFTFLLTCIFLPLLRGHSLFTCEPITVPRCMKMAYNMTFFPNLMGHYDQSIAAVEMEHFLPLANLECSPNIETFLCKAFVPTCIEQIHVVPPCRKLCEKVYSDCKKLIDTFGIRWPEELECDRLQYCDETVPVTFDPHTEFLGPQKKTEQVQRDIGFWCPRHLKTSGGQGYKFLGIDQCAPPCPNMYFKSDELEFAKSFIGTVSIFCLCATLFTFLTFLIDVRRFRYPERPIIYYSVCYSIVSLMYFIGFLLGDSTACNKADEKLELGDTVVLGSQNKACTVLFMLLYFFTMAGTVWWVILTITWFLAAGRKWSCEAIEQKAVWFHAVAWGTPGFLTVMLLAMNKVEGDNISGVCFVGLYDLDASRYFVLLPLCLCVFVGLSLLLAGIISLNHVRQVIQHDGRNQEKLKKFMIRIGVFSGLYLVPLVTLLGCYVYEQVNRITWEITWVSDHCRQYHIPCPYQAKAKARPELALFMIKYLMTLIVGISAVFWVGSKKTCTEWAGFFKRNRKRDPISESRRVLQESCEFFLKHNSKVKHKKKHYKPSSHKLKVISKSMGTSTGATANHGTSAVAITSHDYLGQETLTEIQTSPETSMREVKADGASTPRLREQDCGEPASPAASISRLSGEQVDGKGQAGSVSESARSEGRISPKSDITDTGLAQSNNLQVPSSSEPSSLKGSTSLLVHPVSGVRKEQGGGCHSDT
B10: TNFAIP3, P21580 (protein)
chain: MAEQVLPQALYLSNMRKAVKIRERTPEDIFKPTNGIIHHFKTMHRYTLEMFRTCQFCPQFREIIHKALIDRNIQATLESQKKLNWCREVRKLVALKTNGDGNCLMHATSQYMWGVQDTDLVLRKALFSTLKETDTRNFKFRWQLESLKSQEFVETGLCYDTRNWNDEWDNLIKMASTDTPMARSGLQYNSLEEIHIFVLCNILRRPIIVISDKMLRSLESGSNFAPLKVGGIYLPLHWPAQECYRYPIVLGYDSHHFVPLVTLKDSGPEIRAVPLVNRDRGRFEDLKVHFLTDPENEMKEKLLKEYLMVIEIPVQGWDHGTTHLINAAKLDEANLPKEINLVDDYFELVQHEYKKWQENSEQGRREGHAQNPMEPSVPQLSLMDVKCETPNCPFFMSVNTQPLCHECSERRQKNQNKLPKLNSKPGPEGLPGMALGASRGEAYEPLAWNPEESTGGPHSAPPTAPSPFLFSETTAMKCRSPGCPFTLNVQHNGFCERCHNARQLHASHAPDHTRHLDPGKCQACLQDVTRTFNGICSTCFKRTTAEASSSLSTSLPPSCHQRSKSDPSRLVRSPSPHSCHRAGNDAPAGCLSQAARTPGDRTGTSKCRKAGCVYFGTPENKGFCTLCFIEYRENKHFAAASGKVSPTASRFQNTIPCLGRECGTLGSTMFEGYCQKCFIEAQNQRFHEAKRTEEQLRSSQRRDVPRTTQSTSRPKCARASCKNILACRSEELCMECQHPNQRMGPGAHRGEPAPEDPPKQRCRAPACDHFGNAKCNGYCNECFQFKQMYG

target: nucleoprotein N of Crimean-Congo hemorrhagic fever virus; assay: AlphaScreen luminescence signal relative to Venus negative control (fold); higher = stronger binding to CCHFV N
Protocol: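 AlphaScreen binding of cell-free made, FLAG-GST-tagged human transcription factors and regulators (crude translation products) to biotinylated N protein; signal as fold of the FLAG-GST-Venus control. One pass.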

Question: B1 was tested. Which AlphaScreen luminescence signal did it give?
Answer: Its AlphaScreen luminescence signal is 2.33.

Question: B2 was tested. Which AlphaScreen luminescence signal did it give?
Answer: Its AlphaScreen luminescence signal is 2.7.

Question: B3 was tested. Which AlphaScreen luminescence signal did it give?
Answer: The AlphaScreen luminescence signal was 1.67.

Question: How did the AlphaScreen luminescence signal turn out when B4 was run?
Answer: The AlphaScreen luminescence signal was 1.35.

Question: Which AlphaScreen luminescence signal does the source give for B5 here?
Answer: The AlphaScreen luminescence signal was 2.51.

Question: With B6 as the binder, how does the AlphaScreen luminescence signal read?
Answer: The AlphaScreen luminescence signal was 1.91.

Question: Which AlphaScreen luminescence signal does the source give for B7 here?
Answer: Its AlphaScreen luminescence signal is 2.19.

Question: Which AlphaScreen luminescence signal does the source give for B8 here?
Answer: The AlphaScreen luminescence signal was 2.23.

Question: For B9, which AlphaScreen luminescence signal is on record?
Answer: The AlphaScreen luminescence signal was 2.14.

Question: B10 was tested. Which AlphaScreen luminescence signal did it give?
Answer: Its AlphaScreen luminescence signal is 2.23.
